# Measured values from patent US20160090578A1, “ENZYMES CATALYZING THE GLYCOSYLATION OF POLYPHENOLS” (priority 2013, published 2016).
# Tested on: MgtS
# Assay: Biotransformation (whole cell catalysis) with E. coli BL21(DE3) pET19b::mgtS and biocatalysis with enzyme
# Excerpt: The supernatant was applied in TLC analysis.
# These samples were used directly for quantitative TLC analysis.
row,Compound,Reaction in biotransformation and biocatalysis with MgtS
1,"Cc1cc(=O)oc2cc(O)ccc12 [4-Methylumbelliferone, 7-Hydroxy-4-methylcoumarin]",shown
2,O=c1cc(-c2ccc(O)c(O)c2)oc2cc(O)cc(O)c12 [Luteolin],shown
3,O=c1c(O)c(-c2ccc(O)c(O)c2)oc2cc(O)cc(O)c12 [Quercetin],shown
4,O=c1cc(-c2ccc(O)cc2)oc2cc(O)cc(O)c12 [apigenin],shown
5,COc1cc([C@@H]2CC(=O)c3c(O)cc(O)cc3O2)ccc1O [homoeriodytiol],shown
6,Cc1cc(=O)c2c(O)cc(O)cc2o1 [noreugenin],shown
7,O=C(CCc1ccc(O)cc1)c1c(O)cc(O)cc1O [phloretin],shown
